Measured values taken from the RNAGym collection of RNA variant scans (doi:10.1073/pnas.2313332121).
Variants at the background level are over-represented here.

B1: TPR 5TU (parent)
chain: GGAUCUUCUCGAUCUAACAAAAAAGACAAAUCUGCCACAAAGCUUGAGAGCAUCUUCGGAUGCAGAGGCGGCAGCCUUCGGUGGCGCGAUAGCGCCAACGUUCUCAACUAUGACACGCAAAACGCGUGCUCCGUUGAAUGGAGUUUAUCAUG

Variants of: B1
Test: polymerase ribozyme fitness, log enrichment relative to wild type (log ratio); higher = more active; in vitro selection for triplet polymerase activity
Procedure, shortened: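 For each subunit of a heterodimeric triplet polymerase ribozyme, a mutant library was built by PCR and transcribed, then taken through a single in vitro selection round in triplicate. Selection involved annealing to a biotinylated primer, the partner subunit and triplets, incubation frozen at −7 °C, gel excision of extended constructs, capture on streptavidin beads and RT-PCR. Genotypes were retained after Illumina sequencing of inputs and outputs only with ≥10 input reads and ≥1 read in each output. Fitness is defined as the logarithm of a genotype's enrichment relative to wild-type enrichment, using inverse-variance-weighted averages across replicates, with the logarithm taken to base 2.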

Variant	polymerase ribozyme fitness (log ratio)
C85U C125U	-0.156
C85U C132U	-0.776
C85U G86U A91U	≤ -4.2
C85U G126C A142C	≤ -4.2
C85U G126U U139A U144C	-3.59
C85U G128U C129A U146G	≤ -4.2
C85U G128U C149A	≤ -4.2
C85U U127A	-3.36
C85U U127C	-2.51
C85U U134A	-3.04
C85U U134G	-2.89
C85U U146A	-0.167
C85U U146G	-0.713
C85U U148A	-3.08
G86A A89U A107U C118U G140U U144G	≤ -4.2
G86A A91U G94C U111C	≤ -4.2
G86A A97G A137C G140A	≤ -4.2
G86A A107U	-3.39
G86A A110G U145A C149G	≤ -4.2
G86A A113G C118G G136U A150U U151C	≤ -4.2
G86A A150C	≤ -4.2

Variant	polymerase ribozyme fitness (log ratio)
G86A C87A A91C A120C	≤ -4.2
G86A C87G	-3.97
G86A C99G	-3.06
G86A C118U G141C	-1.77
G86A G143A	-1.25
G86A G143C A147G	≤ -4.2
G86C A97G U135C G136A U146C	≤ -4.2
G86C A98U A142U U148A	≤ -4.2
G86C A107G U111C A115U	≤ -4.2
G86C C116U	-2.44
G86U A89U A113U C131G	≤ -4.2
G86U A107G	≤ -4.2
G86U A113G C114G G133U	≤ -4.2
G86U A142G	-2.35
G86U C99G C116G G128U	≤ -4.2
G86U C105A C118G U151A	≤ -4.2
G86U C105G G136U	≤ -4.2
G86U C108U	-4.14
G86U C114G U134G	≤ -4.2
G86U G140U	-3.83
G86U G143A	-2.53

Variant	polymerase ribozyme fitness (log ratio)
G86U U101G U111A	≤ -4.2
G86U U109G G140U G141A	≤ -4.2
G86U U151A	≤ -4.2
C87A A89U C129G	≤ -4.2
C87A A106C	≤ -4.2
C87A A107C U139C U151A	≤ -4.2
C87A A107G C123U G140U	≤ -4.2
C87A A120C	≤ -4.2
C87A A121C	≤ -4.2
C87A A150C	≤ -4.2
C87A C93A C95G A121U U127G G140A	≤ -4.2
C87A C93U C95U G100A C116U A121G C129A U130G	≤ -4.2
C87A C103U A106U C116G G124C U127G	≤ -4.2
C87A C105A A115G G136U	≤ -4.2
C87A C108G U127C	≤ -4.2
C87A C116U	≤ -4.2
C87A C149A	≤ -4.2
C87A G112C C116G	≤ -4.2
C87A G117A G133A	≤ -4.2
C87A G128U	≤ -4.2
C87A G140C	≤ -4.2

Variant	polymerase ribozyme fitness (log ratio)
C87A G140C G141A	≤ -4.2
C87A U90G U134G	≤ -4.2
C87A U139C G152U	≤ -4.2
C87G A89G	≤ -4.2
C87G A98G	≤ -4.2
C87G A98U U144G	≤ -4.2
C87G A113C U146G	≤ -4.2
C87G C99A C114U C125G	≤ -4.2
C87G C114G C131U	≤ -4.2
C87G C116A	≤ -4.2
C87G C123A	≤ -4.2
C87G C149U	≤ -4.2
C87G G88U U90G	≤ -4.2
C87G G92A A107C	≤ -4.2
C87G G92A A119G	≤ -4.2
C87G G92C G126A	0.48
C87G G100U A120C U135G G136U	≤ -4.2
C87G G143U	≤ -4.2
C87G U90C A98G C149A	≤ -4.2
C87G U139G	≤ -4.2
